# Data: article PMC4336329 (PLoS ONE, 2015)
# Screen size: about 310,000 compounds; about 14,000 (4.5%) showed an effect of 50% or more. Effects have a minus sign here. The list shows a part of the results.
# Target: human ether-à-go-go-related gene (hERG) potassium channel (human, UniProt Q12809)
# Assay: primary screen, population patch clamp on CHO cells stably expressing hERG
# 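Further: peak tail current of the secondary pulse compared with the same well before compound.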
# Sequence of human ether-à-go-go-related gene (hERG) potassium channel (Q12809 whole entry, looked up): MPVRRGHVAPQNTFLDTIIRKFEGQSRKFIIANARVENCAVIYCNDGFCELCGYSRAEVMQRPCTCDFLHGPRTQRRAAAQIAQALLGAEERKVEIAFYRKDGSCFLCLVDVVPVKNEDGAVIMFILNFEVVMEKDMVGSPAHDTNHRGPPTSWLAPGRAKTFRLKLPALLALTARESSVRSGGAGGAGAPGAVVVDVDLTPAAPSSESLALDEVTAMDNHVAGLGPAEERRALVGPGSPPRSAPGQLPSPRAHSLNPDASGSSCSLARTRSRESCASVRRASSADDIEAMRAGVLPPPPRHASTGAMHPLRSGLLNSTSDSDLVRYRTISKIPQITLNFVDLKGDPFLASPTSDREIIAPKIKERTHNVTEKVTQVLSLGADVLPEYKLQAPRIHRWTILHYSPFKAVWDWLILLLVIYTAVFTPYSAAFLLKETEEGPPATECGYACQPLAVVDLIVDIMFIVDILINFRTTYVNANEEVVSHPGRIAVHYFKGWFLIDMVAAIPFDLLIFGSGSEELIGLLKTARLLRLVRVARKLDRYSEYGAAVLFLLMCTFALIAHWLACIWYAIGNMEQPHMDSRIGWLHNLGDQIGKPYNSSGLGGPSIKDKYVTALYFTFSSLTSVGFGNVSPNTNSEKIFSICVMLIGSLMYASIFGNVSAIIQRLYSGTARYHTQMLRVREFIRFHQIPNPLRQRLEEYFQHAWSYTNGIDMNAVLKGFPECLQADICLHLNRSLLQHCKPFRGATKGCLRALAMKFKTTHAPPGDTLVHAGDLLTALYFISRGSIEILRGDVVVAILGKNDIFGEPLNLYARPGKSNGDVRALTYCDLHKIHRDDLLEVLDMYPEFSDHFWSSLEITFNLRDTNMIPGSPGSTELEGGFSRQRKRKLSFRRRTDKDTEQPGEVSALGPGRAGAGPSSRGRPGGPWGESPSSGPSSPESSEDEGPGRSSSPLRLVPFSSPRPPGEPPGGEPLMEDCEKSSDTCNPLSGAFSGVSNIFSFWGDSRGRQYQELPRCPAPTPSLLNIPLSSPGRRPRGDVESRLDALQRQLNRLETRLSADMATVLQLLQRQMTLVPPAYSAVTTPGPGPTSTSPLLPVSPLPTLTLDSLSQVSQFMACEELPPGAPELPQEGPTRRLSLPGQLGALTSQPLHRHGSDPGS
row,Compound,"hERG current change (%, negative = inhibition) at 10uM [%]"
1,CC1CN(C(=O)CN2C(=O)c3ccccc3S2(=O)=O)CC(C)O1 (centres unmarked),3.72
2,CCc1nnc(NC(=O)CSc2nc(N)c(NC(=O)c3ccc(OC)cc3)c(=O)[nH]2)s1,23.4
3,CCOCCc1nn2c(=O)cc(CSCC(=O)Nc3cc(C)cc(C)c3)nc2s1,7.76
4,CN(C)c1ccc(P(=O)(COc2ccc([N+](=O)[O-])cc2)c2ccc(N(C)C)cc2)cc1,-41.9
5,CCOC(=O)c1ccc(N2C(=O)CC(C(=O)OC)=C2C)cc1,8.74
6,COc1cccc2cc(C(=O)Nc3cc(C)cc(C)c3)/c(=N/NS(=O)(=O)c3ccccc3)oc12,19.5
7,CCOc1ccccc1N1CCN(C(=O)C2CSC3(C)CCC(=O)N23)CC1 (centres unmarked),-6.5
8,COc1ccc(-c2ccc(S(=O)(=O)NCC3CCCO3)cc2)cc1 (centres unmarked),8.68
9,C=CCNC(=O)c1ccc(Cn2c(=S)[nH]c3cc4c(cc3c2=O)OCO4)cc1,15.5
10,O=C(/C=C/c1ccccc1)NC(=S)Nc1ccc2c3c(cccc13)CC2,21.2
11,Cc1ccc(C(=O)N=c2sccn2C)o1,23.6
12,O=c1[nH]c(=O)n(-c2ccccc2)c(O)c1C=NC12CN3CN(CN(C3)C1)C2,9.13
13,CC(=O)NCCC(=O)N1CCc2c([nH]c3ccccc23)C1c1cccc(C)c1 (centres unmarked),-14.3
14,CC1CCN(C(=O)C2Cc3ccccc3CN2S(=O)(=O)c2ccc(F)cc2)CC1 (centres unmarked),-22.9
15,Cl.O=C(O)CCCCCNc1nc(-c2ccccc2)nc2ccccc12,3.35
16,CCOC(=O)C1CCCN(C(=O)COC(=O)c2ccc(C#N)cc2)C1 (centres unmarked),8.36
17,CC(C)C(=O)Nc1ncc(Cc2cccc(Cl)c2)s1,0.846
18,Cc1cc(Oc2cc(N)cc([N+](=O)[O-])c2)ccc1Cl,1.43
19,O=C(O)C1C2C=CC(C2)C1C(=O)NCc1ccccc1 (centres unmarked),2.2

row,Compound,"hERG current change (%, negative = inhibition) at 10uM [%]"
1,CC(=O)Nc1cccc(NC(=O)CCCC2CCCCC2)c1,12.5
2,CCCCn1c(-c2cccs2)nc2nc3ccccc3nc21,-6.55
3,COc1ccccc1N(C)S(=O)(=O)c1ccc(Cl)c(C(=O)NCC2(N(C)C)CCCCC2)c1,-36
4,COc1ccc(Cl)cc1NC(=O)CN(C)C(=O)Cc1ccc2c(c1)CCC2,-7.26
5,O=C(NCCCN1CCOCC1)C1CCCN(S(=O)(=O)N2CCCCC2)C1 (centres unmarked),52.1
6,Cc1c(Cl)cccc1NC(=O)CCC(=O)NNC(=O)c1ccccc1Cl,-3.57
7,O=C(NCc1ccco1)c1cc(S(=O)(=O)N2CCCc3ccccc32)ccc1Cl,-24.9
8,Cc1ccc(-c2cc(-c3n[nH]c(=S)n3C)c3ccccc3n2)cc1,17.4
9,Cc1ccc(Sc2nc3ccc(C)cn3c(=O)c2/C=N/O)cc1,20.9
10,O[C@@H]1CN(C2CCCCC2)CC[C@H]1N1CCN(CCc2ccccc2)CC1,7.97
11,COc1ccc([N+](=O)[O-])cc1NC(=O)C1CCCO1 (centres unmarked),0.923
12,CC1(C)COCN1C(=O)c1ccc(C#N)cc1,17.3
13,O=C(Nc1ccc2[nH]c(=O)[nH]c2c1)c1ccc(Cl)c(Cl)c1,30
14,Cc1ccc2nc(N/C(=N/S(=O)(=O)c3cccs3)c3ccccc3Cl)sc2c1,-7.11
15,COc1cc(SC)ccc1C(=O)NCCOc1ccccc1Cl,2.89
16,CCOC(=O)N1CCC(n2c(=S)[nH]c3cc(OC)c(OC)cc3c2=O)CC1,1.67
17,Cc1cc(NC(=O)c2ccccc2C)n(-c2cccc(F)c2)n1,10.6
18,COc1ccc(NCC(O)Cn2c(C)c(C)c3ccccc32)cc1 (centres unmarked),-1.09
19,COc1cc2c(cc1OC)/C(=C/C(=O)c1cccc([N+](=O)[O-])c1)NCC2,5.74

row,Compound,"hERG current change (%, negative = inhibition) at 10uM [%]"
1,O=C(COC(=O)CNC(=O)C1CCCCC1)Nc1cc(C(F)(F)F)ccc1Cl,17.5
2,COc1ccc(-c2noc(Cc3ccc(Cl)cc3)n2)cc1OC,2.6
3,O=C(CSc1nnc(-c2ccc(Cl)cc2)n1CC1CCCO1)NC1CCS(=O)(=O)C1 (centres unmarked),30.7
4,Cc1ccc(CC2C(=O)N(CC(=O)O)C(=O)C2C)cc1 (centres unmarked),-8.51
5,O=C(COC(=O)c1sc2ccccc2c1Cl)NCC1CCCCC1,16.4
6,COc1ccc(C2N3CC4(C)CN2CC(C)(C3)C4O)cc1OC (centres unmarked),12.3
7,Cc1cccc(-c2nc(C#N)c(NCc3ccco3)o2)c1,15.6
8,CCN(CC)C(=O)c1ccc(NC(=O)c2cc(S(=O)(=O)N3CCCCCC3)ccc2OC)cc1,-21.9
9,CC1CN(C(=O)CCC(=O)NCc2ccccc2)c2ccccc2S1 (centres unmarked),-1.84
10,CCOCCCNCc1cc(Br)ccc1OCC.Cl,-55.5
11,COc1ccc(C)cc1NC(=O)c1ccoc1C,4.91
12,CCOc1ccccc1NC(=O)c1nc(S(=O)(=O)Cc2ccccc2)ncc1Cl,15.6
13,CC(C)c1ccc(S(=O)(=O)N2CCN(C(=O)CCNC(=O)Nc3ccccc3)CC2)cc1,-23.7
14,CCn1c(=NC(=O)c2ccc(N3C(=O)CCC3=O)cc2)sc2c(OC)ccc(OC)c21,8.73
15,CCOc1ccc(C(=O)OCC(=O)N2CCOCC2)cc1OCC,9.34
16,COC(=O)c1cc(C(=O)Nc2ccc(S(=O)(=O)NC(C)(C)C)cc2)cc([N+](=O)[O-])c1,-33
17,Cc1cc2ncn(C(=O)N3CCCCC3)c2cc1C,3.24
18,Nc1ccc(N2CCOCC2)c(S(=O)(=O)Nc2cc(Cl)ccc2Cl)c1,5.66
